Here are results for 58 compounds from PMC4336329 (PLoS ONE, 2015).

Screen size: about 310,000 compounds; about 14,000 (4.5%) showed an effect of 50% or more. Effects have a minus sign here. The list shows a part of the results.
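Further: peak tail current of the secondary pulse compared with the same well before compound.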

The target in the assay is human ether-à-go-go-related gene (hERG) potassium channel (human, UniProt Q12809). The experiment in a line: primary screen, population patch clamp on CHO cells stably expressing hERG.
human ether-à-go-go-related gene (hERG) potassium channel, sequence (Q12809 whole entry, looked up): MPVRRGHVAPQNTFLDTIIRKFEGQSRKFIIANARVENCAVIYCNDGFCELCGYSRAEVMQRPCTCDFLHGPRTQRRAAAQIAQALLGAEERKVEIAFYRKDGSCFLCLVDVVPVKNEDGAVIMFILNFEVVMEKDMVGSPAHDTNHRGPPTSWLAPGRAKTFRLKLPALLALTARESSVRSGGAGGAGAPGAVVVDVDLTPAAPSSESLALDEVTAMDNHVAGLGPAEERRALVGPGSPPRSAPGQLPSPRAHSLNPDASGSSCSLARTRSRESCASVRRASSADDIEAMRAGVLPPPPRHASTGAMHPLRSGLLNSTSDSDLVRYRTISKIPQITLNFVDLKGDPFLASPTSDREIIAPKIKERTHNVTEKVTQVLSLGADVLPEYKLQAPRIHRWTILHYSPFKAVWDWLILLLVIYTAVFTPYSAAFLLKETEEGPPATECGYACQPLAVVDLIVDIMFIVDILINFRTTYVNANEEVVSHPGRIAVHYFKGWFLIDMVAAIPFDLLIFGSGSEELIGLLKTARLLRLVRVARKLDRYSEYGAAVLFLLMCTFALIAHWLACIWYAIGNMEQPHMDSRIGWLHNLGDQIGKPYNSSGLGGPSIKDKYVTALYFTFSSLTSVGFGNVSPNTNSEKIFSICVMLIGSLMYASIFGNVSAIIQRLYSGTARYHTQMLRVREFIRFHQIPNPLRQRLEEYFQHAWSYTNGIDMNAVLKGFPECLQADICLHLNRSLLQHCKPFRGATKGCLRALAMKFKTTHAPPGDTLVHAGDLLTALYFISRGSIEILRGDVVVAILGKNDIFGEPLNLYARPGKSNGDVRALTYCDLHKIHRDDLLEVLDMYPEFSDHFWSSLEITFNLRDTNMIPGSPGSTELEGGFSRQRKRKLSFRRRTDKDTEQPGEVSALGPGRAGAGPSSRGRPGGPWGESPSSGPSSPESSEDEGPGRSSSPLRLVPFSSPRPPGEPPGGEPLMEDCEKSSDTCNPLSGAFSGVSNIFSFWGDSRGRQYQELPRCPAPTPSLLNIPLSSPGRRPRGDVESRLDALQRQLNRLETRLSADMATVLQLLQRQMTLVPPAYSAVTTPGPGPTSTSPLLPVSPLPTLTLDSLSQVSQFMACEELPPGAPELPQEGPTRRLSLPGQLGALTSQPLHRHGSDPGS
For `CCc1sc(C(=O)NC)cc1Br`, the “hERG current change (%, negative = inhibition) at 10uM” value is given as -1.03%. `COc1ccc(N(CC(O)CN2C(=O)NC(C)(C)C2=O)S(=O)(=O)c2ccccc2)cc1` (stereo not shown): the “hERG current change (%, negative = inhibition) at 10uM” value is recorded as -17.7%. In the case of `CC(NC(=O)C(C)N1C(=O)c2cccc([N+](=O)[O-])c2C1=O)c1ccccc1` (stereo not shown) it was 25.9%; in that of `CN(c1cccc(NC(=O)CN(c2cccc(Cl)c2)S(=O)(=O)c2ccccc2)c1)S(C)(=O)=O`, 11.6%; in that of `O=C(NCc1ccco1)c1ccc(Oc2ccccc2)cc1`, -30.5%. As for `CN(NC(=O)C(C)(C)C)c1nc(-c2ccccc2)nnc1C(F)(F)F`, the figure is -4.05%.

`Cc1c(NC(=S)NC(NC(=O)C(C)C)C(Cl)(Cl)Cl)c(=O)n(-c2ccccc2)n1C` (stereo not shown): the “hERG current change (%, negative = inhibition) at 10uM” value is listed as -1.45%. In the case of `CCCn1ncc(CN2CCC(n3nccc3NC(=O)c3ccccc3OC)CC2)c1C` it was -79.2%; in that of `O=C(Nc1nc2ccccc2n1CCOc1ccccc1)c1ccco1`, -2.07%; in that of `CCc1ccccc1S(=O)(=O)c1c(C)cc(C)nc1Cl`, 10.3%. As for `O=C(COc1ccccc1)Nc1nc(-c2ccc(S(=O)(=O)N3CCOCC3)cc2)cs1`, the figure is 1.77%; as for `Cc1nc([N+](=O)[O-])cn1CCCCN1C(=O)c2ccccc2C1=O`, 6.42%; as for `CC(=O)CCC(=O)c1ccc2ccccc2c1`, -12.1%. `CCOc1ccccc1Nc1cc(C)nc2ccc(C)cc12`: the “hERG current change (%, negative = inhibition) at 10uM” value is given as -70.1%. In the case of `CCCCc1ccc(NC(=S)Nc2ccc(Nc3ccc(OC)cc3)cc2)cc1` it was 7.1%; in that of `Cc1cccc(C(=O)Nc2c3c(nn2C(C)(C)C)CS(=O)(=O)C3)c1`, 14.9%; in that of `O=C(CC(c1ccccc1)c1cc(Cl)ccc1O)NCCN1CCOCC1` (stereo not shown), -42.1%. As for `c1ccc(-c2cc3ncccc3cn2)cc1`, the figure is 4.36%; as for `N#CC(C(=O)O)=C1CCCC1`, -11.4%. As for `Cc1cc(C)cc(OCc2ccc(C(=O)N3N=C(C(F)F)CC3(O)C(F)F)o2)c1` (stereo not shown), the figure is -11%; as for `Cc1ccc(OS(=O)(=O)c2ccccc2)c(/C=N/N=C2\NC(=O)C(C)S2)c1` (stereo not shown), -0.524%; as for `CC(C)(C)c1ccc(OCC(O)CN2CCOCC2)cc1` (stereo not shown), -3.19%.

`C=CCn1c(O)c(C(C)=NCc2cc(OC)cc(OC)c2)c(=O)[nH]c1=O`: the “hERG current change (%, negative = inhibition) at 10uM” value is reported as -37%. As for `Cc1ccc(CSCC(Nc2ccc(C(=O)O)cc2[N+](=O)[O-])C(=O)O)cc1` (stereo not shown), the “hERG current change (%, negative = inhibition) at 10uM” value is recorded as 6.66%. In the case of `CS(=O)(=O)N1CCN(c2cnn(-c3ccccc3)c(=O)c2Cl)CC1` it was -0.644%; in that of `O=C(Nc1ccccc1F)c1ccc2snnc2c1`, 15%; in that of `COc1cccc(NC(=O)CCC2CCN(C(=O)C3CC=CCC3)CC2)c1` (stereo not shown), -1.57%.

`COc1cc(NC(=O)CSCC(=O)N(C)C2CCCCC2)cc(OC)c1`: the “hERG current change (%, negative = inhibition) at 10uM” value was found to be 5.36%. As for `Cc1ccccc1C(=O)Nc1cccc(NC(=S)NC(=O)c2cccs2)c1`, the figure is 11.4%. In the case of `Cc1ccc(C(=O)N(CC#N)CC#N)cc1C` it was 0.632%; in that of `O=C(N1CCCCC1)N1CCN(C(c2ccccc2)c2ccccc2)CC1`, -12%; in that of `CCc1ccccc1OCC(=O)Nc1cccc(S(=O)(=O)NCc2ccco2)c1`, -13.4%. In the case of `CCOC(=O)c1ccccc1NC(=O)[C@@H]1CCCN1C(=O)OC(C)(C)C` it was -21.8%.

Take `Cc1nc(SC2CC(=O)N(c3ccccc3)C2=O)n[nH]1` (stereo not shown): the “hERG current change (%, negative = inhibition) at 10uM” value is -0.898%. As for `Cc1ccc(S(=O)(=O)NCC(=O)N2CCCC2)cc1`, the figure is 4.77%; as for `Cc1ccc(C(=O)NC(=S)Nc2nc(-c3cccc([N+](=O)[O-])c3)cs2)c(Cl)c1`, 7.09%.

Regarding `COc1ccc(C(=O)Nc2nc3ccccc3[nH]2)cc1OC`, the “hERG current change (%, negative = inhibition) at 10uM” value is -6.47%.

`COc1cccc(COC(=O)c2cc(S(=O)(=O)N3CCCCC3)ccc2N2CCOCC2)c1OC`: the “hERG current change (%, negative = inhibition) at 10uM” value was 8.27%.

Turning to `O=C(CSc1nnc(-c2cccnc2)o1)Nc1ccccn1`, the “hERG current change (%, negative = inhibition) at 10uM” value is on record as 9.65%. As for `CCOC(=O)c1c(C)n(Cc2ccc(F)cc2)c2ccc(O)cc12`, the figure is 3.51%. Turning to `CCOc1ccc(C(=O)Nc2nccs2)cc1[N+](=O)[O-]`, the “hERG current change (%, negative = inhibition) at 10uM” value was -22%. `COCCCNC(=O)CSc1nc2c(sc3ccccc32)c(=O)n1CCCC(=O)NCC1CCCO1` (stereo not shown): the “hERG current change (%, negative = inhibition) at 10uM” value is listed as -14.4%. In the case of `CC(=O)[C@@]1(O)CC[C@H]2[C@@H]3CC=C4C[C@@H](O)CC[C@]4(C)[C@H]3CC[C@@]21C` it was 3.18%; in that of `CCCCC(CC)C1OCC(CN2CCCCC2)O1` (stereo not shown), -7.71%; in that of `Cc1ccc(-c2cc(C(=O)N3CCC4(CC3)OCCO4)no2)cc1`, -7.31%.

In the case of `S=c1[nH]nc(Nc2cccc3ccccc23)s1`, the “hERG current change (%, negative = inhibition) at 10uM” value worked out at 16.3%. For the compound `O=C(NNC(=O)c1ccc(Oc2cc(Cl)cc(Cl)c2)o1)c1ccccc1`, the “hERG current change (%, negative = inhibition) at 10uM” value was found to be 6%. In the case of `O=C(COC(=O)CC1CC2CCC1C2)NC(=O)NC1CCCC1` (stereo not shown) it was 14%; in that of `NC(=O)c1cc([N+](=O)[O-])ccc1Nc1ccccc1`, -3.26%; in that of `Cc1cc(=O)n2[nH]c(-c3ccsc3-n3c(C)ccc3C)cc2n1`, -14.1%. As for `CN1C(=O)c2ccc(Oc3ccccc3)cc2C1=O`, the figure is -5.03%. As for `COc1ccc(Nc2cc(C)nc3ncnn23)cc1Cl`, the “hERG current change (%, negative = inhibition) at 10uM” value is listed as -39.5%. For the compound `COC(=O)C1=C(C)N(C)C(C)=C(C(=O)OC)C1c1ccccn1`, the “hERG current change (%, negative = inhibition) at 10uM” value was 5.08%.

As for `COc1cc(/C=C/C(=O)OCC(=O)N(C)CC(=O)Nc2ccc(F)cc2)ccc1OC(F)F`, the “hERG current change (%, negative = inhibition) at 10uM” value was -48%. In the case of `CCOc1ccc(N=Nc2c(=O)[nH]n3c(C)cc(C)nc23)cc1` it was -1.7%; in that of `COc1cccc(OC)c1C(=O)N1CCNCC1.O=C(O)C(=O)O`, 12.5%.

As to `NC(=O)C1CCN(C(=O)CCC(=O)c2ccc(F)cc2)CC1`, the “hERG current change (%, negative = inhibition) at 10uM” value worked out at 17.4%. Take `O=C(CN1CCOCC1)N1CCCc2ccccc21.O=C(O)C(=O)O`: the “hERG current change (%, negative = inhibition) at 10uM” value is 22.4%.
